# In the supplement of paper PMC8728848:
# The list shows a part of the results.
# B1: rCNL (Clitocybe nebularis), B2ZRS9 (protein)
# chain: SITPGTYNITNVAYTNRLIDLTGSNPAENTLIIGHHLNKTPSGYGNQQWTLVQLPHTTIYTMQAVNPQSYVRVRDDNLVDGAALVGSQQPTPVSIESAGNSGQFRIKIPNLGLALTLPSDANSTPIVLGEVDETSTNQLWAFESVSAV
# Key:
# Assay in all cases: glycan array binding signal (z-score within array); higher = stronger binding
# Settings in all cases: glycan notation: IUPAC condensed, linker removed
# Neu5Ac(a2-3)Gal = target: Neu5Ac(a2-3)Gal
# How it was run: (§1)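 Negative Z-scores can be read as non-binding. The Z-score is calculated within each array and then averaged across arrays of one protein sequence at different concentrations or buffers and across linkers. Arrays, 3228 in all, were curated from the Consortium for Functional Glycomics database and kept only where the protein sequence was available.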
# [1] = target: Neu5Ac(a2-3)Gal(b1-3)GalNAc
# How it was run: as §1
# [2] = target: Neu5Ac(a2-3)Gal(b1-3)GalNAc(b1-3)Gal(a1-4)Gal(b1-4)Glc
# How it was run: as §1
# [3] = target: Neu5Ac(a2-3)Gal(b1-3)GalNAc(b1-4)[Neu5Ac(a2-3)]Gal(b1-4)Glc
# How it was run: as §1
# [4] = target: Neu5Ac(a2-3)Gal(b1-3)GalNAc(b1-4)[Neu5Ac(a2-8)Neu5Ac(a2-3)]Gal(b1-4)Glc
# How it was run: as §1
# [5] = target: Neu5Ac(a2-3)Gal(b1-3)GalNAc6S
# How it was run: as §1
# [6] = target: Neu5Ac(a2-3)Gal(b1-3)GlcNAc
# How it was run: as §1
# [7] = target: Neu5Ac(a2-3)Gal(b1-3)GlcNAc(b1-2)Man
# How it was run: as §1
# [8] = target: Neu5Ac(a2-3)Gal(b1-3)GlcNAc(b1-2)Man(a1-3)[GlcNAc(b1-4)][Neu5Ac(a2-3)Gal(b1-3)GlcNAc(b1-2)Man(a1-6)]Man(b1-4)GlcNAc(b1-4)GlcNAc
# How it was run: as §1
# [9] = target: Neu5Ac(a2-3)Gal(b1-3)GlcNAc(b1-2)Man(a1-3)[Neu5Ac(a2-3)Gal(b1-3)GlcNAc(b1-2)Man(a1-6)]Man(b1-4)GlcNAc(b1-4)GlcNAc
# How it was run: as §1
# [10] = target: Neu5Ac(a2-3)Gal(b1-3)GlcNAc(b1-3)Gal(b1-3)GlcNAc
# How it was run: as §1
# [11] = target: Neu5Ac(a2-3)Gal(b1-3)GlcNAc(b1-3)Gal(b1-4)GlcNAc
# How it was run: as §1
# [12] = target: Neu5Ac(a2-3)Gal(b1-3)GlcNAc(b1-3)GalNAc
# How it was run: as §1
# [13] = target: Neu5Ac(a2-3)Gal(b1-3)GlcNAc(b1-4)Gal(b1-4)Glc
# How it was run: as §1
# [14] = target: Neu5Ac(a2-3)Gal(b1-3)GlcNAc(b1-6)GalNAc
# How it was run: as §1
# [15] = target: Neu5Ac(a2-3)Gal(b1-3)GlcNAc6S
# How it was run: as §1
# [16] = target: Neu5Ac(a2-3)Gal(b1-3)[Fuc(a1-4)]GlcNAc
# How it was run: as §1
# [17] = target: Neu5Ac(a2-3)Gal(b1-3)[Fuc(a1-4)]GlcNAc(b1-3)Gal(b1-3)[Fuc(a1-4)]GlcNAc
# How it was run: as §1
# [18] = target: Neu5Ac(a2-3)Gal(b1-3)[Fuc(a1-4)]GlcNAc(b1-3)Gal(b1-4)[Fuc(a1-3)]GlcNAc
# How it was run: as §1
# [19] = target: Neu5Ac(a2-3)Gal(b1-3)[GlcNAc(b1-6)]GalNAc
# How it was run: as §1
# [20] = target: Neu5Ac(a2-3)Gal(b1-3)[Neu5Ac(a2-3)Gal(b1-4)]GlcNAc
# How it was run: as §1
# [21] = target: Neu5Ac(a2-3)Gal(b1-3)[Neu5Ac(a2-6)]GalNAc
# How it was run: as §1
# [22] = target: Neu5Ac(a2-3)Gal(b1-3)[Neu5Ac(a2-6)]GlcNAc(b1-3)[Fuc(a1-3)[Gal(b1-4)]GlcNAc(b1-6)]Gal(b1-4)Glc
# How it was run: as §1
# [23] = target: Neu5Ac(a2-3)Gal(b1-3)]Neu5Ac(a2-3)Gal(b1-4)]GlcNAc
# How it was run: as §1
# Neu5Ac(a2-3)Gal(b1-4)Glc = target: Neu5Ac(a2-3)Gal(b1-4)Glc
# How it was run: as §1
# [24] = target: Neu5Ac(a2-3)Gal(b1-4)GlcNAc
# How it was run: as §1
# [25] = target: Neu5Ac(a2-3)Gal(b1-4)GlcNAc(b1-2)Man
# How it was run: as §1
# [26] = target: Neu5Ac(a2-3)Gal(b1-4)GlcNAc(b1-2)Man(a1-3)[GlcNAc(b1-2)Man(b1-4)GlcNAc(b1-2)Man(a1-6)]Man(b1-4)GlcNAc(b1-4)GlcNAc
# How it was run: as §1
# [27] = target: Neu5Ac(a2-3)Gal(b1-4)GlcNAc(b1-2)Man(a1-3)[GlcNAc(b1-4)][Neu5Ac(a2-3)Gal(b1-4)GlcNAc(b1-2)Man(a1-6)]Man(b1-4)GlcNAc(b1-4)GlcNAc
# How it was run: as §1
# [28] = target: Neu5Ac(a2-3)Gal(b1-4)GlcNAc(b1-2)Man(a1-3)[Neu5Ac(a2-3)Gal(b1-4)GlcNAc(b1-2)Man(a1-6)]Man(b1-4)GlcNAc(b1-4)GlcNAc
# How it was run: as §1
# [29] = target: Neu5Ac(a2-3)Gal(b1-4)GlcNAc(b1-2)Man(a1-3)[Neu5Ac(a2-3)Gal(b1-4)GlcNAc(b1-2)Man(a1-6)]Man(b1-4)GlcNAc(b1-4)[Fuc(a1-6)]GlcNAc
# How it was run: as §1
# [30] = target: Neu5Ac(a2-3)Gal(b1-4)GlcNAc(b1-2)Man(a1-3)[Neu5Ac(a2-6)Gal(b1-4)GlcNAc(b1-2)Man(a1-6)]Man(b1-4)GlcNAc(b1-4)GlcNAc
# How it was run: as §1
# [31] = target: Neu5Ac(a2-3)Gal(b1-4)GlcNAc(b1-2)[Neu5Ac(a2-3)Gal(b1-4)GlcNAc(b1-4)]Man(a1-3)[GlcNAc(b1-4)][Neu5Ac(a2-3)Gal(b1-4)GlcNAc(b1-2)[Neu5Ac(a2-3)Gal(b1-4)GlcNAc(b1-6)]Man(a1-6)]Man(b1-4)GlcNAc(b1-4)GlcNAc
# How it was run: as §1
# [32] = target: Neu5Ac(a2-3)Gal(b1-4)GlcNAc(b1-2)[Neu5Ac(a2-3)Gal(b1-4)GlcNAc(b1-4)]Man(a1-3)[GlcNAc(b1-4)][Neu5Ac(a2-3)Gal(b1-4)GlcNAc(b1-4)Man(a1-6)]Man(b1-4)GlcNAc(b1-4)GlcNAc
# How it was run: as §1
# [33] = target: Neu5Ac(a2-3)Gal(b1-4)GlcNAc(b1-2)[Neu5Ac(a2-3)Gal(b1-4)GlcNAc(b1-6)]Man(a1-6)[Neu5Ac(a2-3)Gal(b1-4)GlcNAc(b1-2)Man(a1-3)]Man(b1-4)GlcNAc(b1-4)GlcNAc
# How it was run: as §1
# [34] = target: Neu5Ac(a2-3)Gal(b1-4)GlcNAc(b1-2)[Neu5Ac(a2-3)Gal(b1-4)GlcNAc(b1-6)]Man(a1-6)[Neu5Ac(a2-3)Gal(b1-4)GlcNAc(b1-2)Man(a1-3)][GlcNAc(b1-4)]Man(b1-4)GlcNAc(b1-4)GlcNAc
# How it was run: as §1
# [35] = target: Neu5Ac(a2-3)Gal(b1-4)GlcNAc(b1-3)Gal
# How it was run: as §1
# [36] = target: Neu5Ac(a2-3)Gal(b1-4)GlcNAc(b1-3)Gal(b1-3)GlcNAc
# How it was run: as §1
# [37] = target: Neu5Ac(a2-3)Gal(b1-4)GlcNAc(b1-3)Gal(b1-4)GlcNAc
# How it was run: as §1
# [38] = target: Neu5Ac(a2-3)Gal(b1-4)GlcNAc(b1-3)Gal(b1-4)GlcNAc(b1-2)Man(a1-3)[Neu5Ac(a2-3)Gal(b1-4)GlcNAc(b1-3)Gal(b1-4)GlcNAc(b1-2)Man(a1-6)]Man(b1-4)GlcNAc(b1-4)GlcNAc
# How it was run: as §1
# [39] = target: Neu5Ac(a2-3)Gal(b1-4)GlcNAc(b1-3)Gal(b1-4)GlcNAc(b1-3)Gal(b1-4)GlcNAc
# How it was run: as §1
# [40] = target: Neu5Ac(a2-3)Gal(b1-4)GlcNAc(b1-3)Gal(b1-4)GlcNAc(b1-3)Gal(b1-4)GlcNAc(b1-2)Man(a1-3)[Neu5Ac(a2-3)Gal(b1-4)GlcNAc(b1-3)Gal(b1-4)GlcNAc(b1-3)Gal(b1-4)GlcNAc(b1-2)Man(a1-6)]GalNAc
# How it was run: as §1
# [41] = target: Neu5Ac(a2-3)Gal(b1-4)GlcNAc(b1-3)Gal(b1-4)GlcNAc(b1-3)GalNAc
# How it was run: as §1
# [42] = target: Neu5Ac(a2-3)Gal(b1-4)GlcNAc(b1-3)Gal(b1-4)GlcNAc(b1-3)[Neu5Ac(a2-3)Gal(b1-4)GlcNAc(b1-3)Gal(b1-4)GlcNAc(b1-6)]GalNAc
# How it was run: as §1
# [43] = target: Neu5Ac(a2-3)Gal(b1-4)GlcNAc(b1-3)Gal(b1-4)GlcNAc(b1-6)[Gal(b1-3)]GalNAc
# How it was run: as §1
binder,measurement,setting,value
B1,glycan array binding signal (z-score),Neu5Ac(a2-3)Gal,-0.274
same,glycan array binding signal (z-score),[1],-0.311
same,glycan array binding signal (z-score),[2],-0.26
same,glycan array binding signal (z-score),[3],-0.313
same,glycan array binding signal (z-score),[4],-0.21
same,glycan array binding signal (z-score),[5],-0.232
same,glycan array binding signal (z-score),[6],-0.311
same,glycan array binding signal (z-score),[7],-0.219
same,glycan array binding signal (z-score),[8],-0.218
same,glycan array binding signal (z-score),[9],-0.45
same,glycan array binding signal (z-score),[10],-0.276
same,glycan array binding signal (z-score),[11],-0.232
same,glycan array binding signal (z-score),[12],-0.275
same,glycan array binding signal (z-score),[13],-0.224
same,glycan array binding signal (z-score),[14],-0.213
same,glycan array binding signal (z-score),[15],-0.238
same,glycan array binding signal (z-score),[16],-0.323
same,glycan array binding signal (z-score),[17],-0.303
same,glycan array binding signal (z-score),[18],-0.314
same,glycan array binding signal (z-score),[19],-0.225
same,glycan array binding signal (z-score),[20],-0.309
same,glycan array binding signal (z-score),[21],-0.293
same,glycan array binding signal (z-score),[22],-0.227
same,glycan array binding signal (z-score),[23],-0.223
same,glycan array binding signal (z-score),Neu5Ac(a2-3)Gal(b1-4)Glc,-0.302
same,glycan array binding signal (z-score),[24],-0.188
same,glycan array binding signal (z-score),[25],-0.174
same,glycan array binding signal (z-score),[26],-0.236
same,glycan array binding signal (z-score),[27],-0.226
same,glycan array binding signal (z-score),[28],-0.22
same,glycan array binding signal (z-score),[29],-0.214
same,glycan array binding signal (z-score),[30],-0.271
same,glycan array binding signal (z-score),[31],-0.225
same,glycan array binding signal (z-score),[32],-0.218
same,glycan array binding signal (z-score),[33],-0.206
same,glycan array binding signal (z-score),[34],-0.228
same,glycan array binding signal (z-score),[35],-0.229
same,glycan array binding signal (z-score),[36],-0.016
same,glycan array binding signal (z-score),[37],-0.02
same,glycan array binding signal (z-score),[38],0.055
same,glycan array binding signal (z-score),[39],0.167
same,glycan array binding signal (z-score),[40],0.003
same,glycan array binding signal (z-score),[41],-0.22
same,glycan array binding signal (z-score),[42],-0.194
same,glycan array binding signal (z-score),[43],-0.168
